About 200 (0.47%) of roughly 43,000 compounds were called active. Roughly 12% stayed inconclusive and do not appear here. Calls come from the whole dose curve; as a rule, active = well fitted cell-killing curve with a large enough effect; inconclusive = small, poorly fitted or top-dose-only effect, or effect the other way; inactive = flat fitted curve, though single readings scatter. This is one part of the list.
Test: Cell viability qHTS assay in S16 Pmp22-F2sN cells; note: nearly all actives have a fitted effect of over 65% in size
Settings: S16 Pmp22-F2sN Schwann cells viability, CellTiter-Glo, 24 h; series mostly up to 57.5 µM; activity change, negative = cytotoxicity: at the top concentration
How it was run: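 S16 Pmp22-F2sN Schwann cells (500-1,000/well) in phenol-red-free DMEM with 10% FBS received 23 nL compound by pin tool for 24 h at 37 °C. Viability was then read as CellTiter-Glo luminescence after 15 min at room temperature.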
% is set by controls: 0 for no effect and ±100 for the full control effect.

| SMILES | activity change, negative = cytotoxicity |
| --- | --- |
| CC1CCN(S(=O)(=O)c2ccc3c(c2)CCN3C(=O)Nc2ccc(Br)cc2F)CC1 | inactive: -0.519% |
| Cc1ccc(C2CCN(C(=O)c3cnn(-c4ccc(C)c(C)c4)c3C3CCN(C(=O)OC(C)(C)C)CC3)C2)cc1 (stereo not given) | inactive: 12.7% |
| CCOc1ccccc1C(=O)N1CCC(c2nc3ccccc3o2)CC1 | inactive: -8.71% |
| Cc1nc(SCC(=O)Nc2ccc(C(=O)O)cc2)n[nH]1 | inactive: -0.785% |
| CCc1ccccc1NC(=O)Cn1nc(N2CCN(c3ccccc3OC)CC2)ccc1=O | inactive: -0.755% |
| Cc1cccc(NC(=O)CN2C(=O)CSc3ccc(S(=O)(=O)N4CCCC4)cc32)c1C | inactive: 16.4% |
| CCOc1ccc(N(CC)S(=O)(=O)N2CCCC(C(=O)Nc3ccc(OC)c(Cl)c3)C2)cc1 (stereo not given) | inactive: 3.99% |
| Cc1nn(C(=O)c2cccc([N+](=O)[O-])c2C)c(C)c1S(=O)(=O)N1CCCCCC1 | inactive: -3.03% |
| O=C(Nc1ccccc1C(F)(F)F)N1CC=C(c2c[nH]c3ccccc23)CC1 | inactive: -22% |
| COC(=O)CC(=O)CSc1nc2cc(C(=O)NCC(C)C)ccc2c(=O)n1CCc1ccccc1 | inactive: -0.508% |
| COc1ccc(-c2onc(C)c2C)cc1S(=O)(=O)N1CCN(c2cc(C)ccc2C)CC1 | inactive: 3.9% |
| COc1ccc(-c2cc3nc(C)c(CCC(=O)NC(C)c4ccccc4)c(C)n3n2)c(OC)c1 (stereo not given) | inactive: 0.316% |
| CCOC(=O)C(C)Sc1nc(-c2ccccc2)ccc1C#N (stereo not given) | inactive: 19.7% |
| Cc1ccc(NC(=O)c2ccc3snnc3c2)cc1C | inactive: 6.38% |
| CCC(C)NC(=O)c1c(C)oc2nc(C)nc(N3CCOCC3)c12 (stereo not given) | inactive: -1.68% |
| COC(=O)c1ccccc1NC(=O)c1nn(-c2ccc(OC)cc2)c(=O)c2c1c1ccccc1n2C | inactive: 2.88% |
| COc1cccc(NC(=O)C2CCN(S(=O)(=O)c3ccc4[nH]c5c(c4c3)CCCCC5)CC2)c1 | inactive: -29.2% |
| COc1ccc(-c2cc(C(=O)NCCc3ccc(OC)c(OC)c3)c3c(-c4ccc(F)cc4)[nH]nc3n2)cc1 | inactive: 1.46% |
| CCOC(=O)c1ccc(NC(=O)Cn2c3ncccc3c(=O)n2-c2ccc(C)c(C)c2)cc1 | inactive: 0.304% |
| Cc1cc(C)n(-c2nc(C)c(C)c(=O)n2CC(=O)Nc2cccc([N+](=O)[O-])c2)n1 | inactive: -0.0264% |

| SMILES | activity change, negative = cytotoxicity |
| --- | --- |
| CCOc1ccc(S(=O)(=O)N2CCC(c3ccncc3)CC2)cc1 | inactive: -14.6% |
| COc1cccc(NC(=O)c2oc3ccc(S(=O)(=O)N4CCCCCC4)cc3c2C)c1 | inactive: -1.82% |
| COc1ccc(S(=O)(=O)NCC(c2ccc(N(C)C)cc2)N2CCc3ccccc32)cc1F (stereo not given) | inactive: -4.91% |
| Cc1cc(C)n2nc(CNS(=O)(=O)c3ccccc3)nc2n1 | inactive: 11.9% |
| CCOC(=O)c1ccccc1NC(=O)COC(=O)CC(C)(C)CC1=NS(=O)(=O)c2ccccc2N1 | inactive: -26.3% |
| COCCNc1oc(-c2ccc(OC)cc2)nc1C#N | inactive: 17.2% |
| CCOC(=O)Cc1c(C(=O)OCC)nnc2c(-c3ccccc3)c(C)nn12 | inactive: 17.5% |
| CC(=O)c1ccc(NC(=O)CC2Oc3ccc(C)cc3NC2=O)cc1 (stereo not given) | inactive: 10.8% |
| CCOC(=O)c1cccc(NC(=O)N2CC=C(c3c[nH]c4ccccc34)CC2)c1 | inactive: -0.999% |
| CCN(CC)C(=O)Cn1c(=O)n(CCc2ccccc2)c(=O)c2ccccc21 | inactive: 10.2% |
| CCCNC(=O)N1[C@H](c2cccs2)[C@@H](C)C(=O)[C@@H](C)[C@@H]1c1cccs1 | inactive: -8.06% |
| Cc1cc(Nc2ccc(Br)c(C)c2)n2nc(-c3ccco3)nc2n1 | inactive: -18.3% |
| Cc1cccc(Nc2nnc(-c3ccc(C)c(S(=O)(=O)N4CCN(C)CC4)c3)c3ccccc23)c1 | inactive: -18.6% |
| Cc1nn2c(=O)cc(COC(=O)c3cccc(NC(=O)c4ccc(F)cc4)c3)nc2s1 | inactive: 11.7% |
| Cc1ccc(Cl)cc1NC(=O)Cn1c(=O)n(C(C)C)c(=O)c2oc3ccccc3c21 | inactive: 21.5% |
| Cc1cccc(C(C)C)c1NC(=O)c1ccc2c(c1)CCN2S(C)(=O)=O | inactive: -23.9% |
| CC(=O)Nc1cccc(NC(=O)CSc2ccc(-c3sc(-c4ccccc4)nc3C)nn2)c1 | inactive: 12.9% |
| O=C(O)CCc1ccc(-c2ccccc2)n1-c1ccc(C(=O)O)cc1 | inactive: 12.6% |
| CCn1c(CN2CCC(C)CC2)nc2cc(NC(=O)c3ccc([N+](=O)[O-])cc3)ccc21 | inactive: 9.24% |
| CC(C)CCNC(=O)C(=O)Nc1c2c(nn1-c1ccc(Cl)cc1)CSC2 | inactive: -9.11% |

| SMILES | activity change, negative = cytotoxicity |
| --- | --- |
| Cc1ccc(-n2nc(-c3ccccc3)c3cnc4cc5c(cc4c32)OCO5)cc1C | inactive: -6% |
| CCN(C(=O)CN1C(=O)COc2ccc(S(=O)(=O)N3CCOCC3)cc21)c1ccc(OC)cc1 | inactive: 8.18% |
| O=C(Nc1nnc(S(=O)(=O)N2CCCCC2)s1)c1ccccc1Br | inactive: 4.23% |
| Cc1ccc(NC(=O)c2ccc3c(O)c(S(=O)(=O)c4ccccc4)c(=O)[nH]c3c2)cc1Cl | inactive: -4.53% |
| Cc1ccc(-c2nnc(Nc3ccc(C(=O)N(C)C)cc3)c3ccccc23)cc1S(=O)(=O)N(C)C | inactive: 19.9% |
| COC(=O)c1ccccc1NC(=O)C1CCN(C(=O)N2CC(C)Oc3ccccc32)CC1 (stereo not given) | inactive: 1.94% |
| COc1ccc(-c2nc3ccccc3s2)cc1NC(=O)c1ccc(F)cc1 | inactive: 10.9% |
| Cc1ccc(OCC(=O)Nc2ccccc2OCc2cc(=O)n3ccccc3n2)cc1C | inactive: 2.35% |
| CC(C)(C)CC(=O)NCC(c1ccc2c(c1)OCO2)N1CCOCC1 (stereo not given) | inactive: -10.9% |
| O=C(Nc1cccc(F)c1)c1ccc2c(c1)N(Cc1ccccc1)C(=O)c1ccccc1S2(=O)=O | inactive: 1.83% |
| O=C(COc1ccc(Cl)cc1)OCc1cc(=O)n2nc(C3CC3)sc2n1 | inactive: -25.3% |
| CCN(c1ccccc1)S(=O)(=O)c1c(-c2ccc(C)cc2)csc1C(=O)OC | inactive: 2.59% |
| COc1ccccc1C(=O)Nc1ccc2oc(-c3cccc4c(Br)cccc34)nc2c1 | inactive: 3.37% |
| CCCN1Cc2cccc(C(=O)Nc3cccc(C(=O)OCC)c3)c2C1=O | inactive: 4.7% |
| CCC1Oc2ccc(Cl)cc2N(CC(=O)NCCc2ccc(Cl)cc2)C1=O (stereo not given) | inactive: -0.466% |
| COCCNc1nc(NCc2cccc(Cl)c2)c2cnn(C)c2n1 | inactive: -14% |
| C=Cc1ccc(Cn2c(C)c(CNCc3ccccc3C)c(C(=O)O)c2C)cc1 | inactive: 3.48% |
| COc1ccccc1CNC(=O)CCn1c(=O)c2cccn2c2cccnc21 | inactive: 7.34% |
| O=C(Cc1csc2nc(-c3ccc(F)cc3)cn12)NCc1ccccc1 | inactive: 0.0519% |
| O=[N+]([O-])c1cc(-c2nc(-c3ccccc3)no2)ccc1NC1CCCCC1 | inactive: 3.64% |

Reference: PubChem BioAssay AID1508642 (National Center for Advancing Translational Sciences (NCATS), 2021)
